Experimental data: PubChem BioAssay AID624173 (National Center for Advancing Translational Sciences (NCATS), 2012)
About 490 (0.12%) of roughly 410,000 compounds were called active. The shares of active, inactive and inconclusive entries below differ from those in the screen. Calls come from the whole dose curve; as a rule, active = well fitted inhibition curve with a large enough effect; inconclusive = small, poorly fitted or top-dose-only effect; inactive = flat fitted curve, though single readings scatter. Where the call is inconclusive, the potency comes from a doubtful curve fit.
Note: nearly all actives have a fitted effect of over 50% in size.
Potency is the fitted concentration of half-maximal effect; tags give direction and shape of the fitted curve.

These molecules were tested against pyruvate kinase (Trypanosoma brucei) (UniProt Q57TT1) (assay: qHTS of Trypanosoma Brucei Inhibitors). Conditions: TbPYK enzyme, Kinase-Glo Plus ATP luminescence, 45 min; series mostly up to 76.8 µM.
Method in brief: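 Glycolytic pyruvate kinase of T. brucei was incubated with substrate, test compound and 130 uM ADP for 45 minutes at room temperature. Luminescent Kinase-Glo Plus signal was measured after 10 minutes.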
In the case of `COC(=O)Cc1cn(-c2ncc(C(F)(F)F)cc2Cl)c2ccccc12`, the Potency was inconclusive: 35.5 µM [inhibitor, partial curve, poor fit]. For `O=C(NCCCN1CCOCC1)c1c(-c2ccccc2)oc2c1C(OCCCCCO)CCC2` (centres undefined), the Potency was “inactive”. With `S=c1[nH]nc(SCc2ccccc2)c2[nH]cnc12` the Potency was inconclusive: 7.94 µM [inhibitor, partial curve]. In the case of `COC(=O)/C=C/C(=O)Nc1ccc(O)c(Cl)c1`, the Potency was inconclusive: 44.7 µM [inhibitor, partial curve, poor fit]. In the case of `N#C/C=C1\Sc2ccccc2C(=O)N1CC(=O)N1CCN(S(=O)(=O)c2ccccc2)CC1`, the Potency was inconclusive: 5.01 µM [inhibitor, partial curve, poor fit]. `Cn1cc(C(c2ccccc2OCC(=O)O)c2cn(C)c3ccccc23)c2ccccc21` was tested, and the Potency was inconclusive: 50.1 µM [inhibitor, single point]. In the case of `COC(=O)c1ccc(C2Nc3c(C)cc(C)cc3C3C=CCC32)cc1` (centres undefined), the Potency was inconclusive: 17.8 µM [inhibitor, partial curve, poor fit]. `CCOCCCNC(=O)/C(C#N)=C/c1ccc(-c2ccc(S(=O)(=O)N3CCOCC3)cc2)o1` was tested, and the Potency was “inactive”. In the case of `CC(=O)NC1C(=O)N(CCN2CCOCC2)c2ccc(C)cc21` (centres undefined), the Potency was inconclusive: 31.6 µM [inhibitor, single point]. With `Cc1cccc(-c2n[nH]c(=S)n2C)c1` the Potency was inconclusive: 31.6 µM [inhibitor, partial curve]. For `CN(CC(=O)NCCCc1ccccc1)S(=O)(=O)c1ccc(Br)cc1`, the Potency was “inactive”. For `C=CCn1c(=S)[nH]c2scc(-c3ccco3)c2c1=O`, the Potency was inconclusive: 35.5 µM [inhibitor, partial curve, poor fit]. In the case of `COC(=O)CCCNc1ncccc1[N+](=O)[O-]`, the Potency was inconclusive: 1.78 µM [inhibitor, full curve]. In the case of `CCc1nc2sc3ccccc3c(=O)c2c(=O)n1Cc1ccco1`, the Potency was inconclusive: 35.5 µM [inhibitor, single point]. In the case of `O=C1C=CC(=O)N1c1ccc(O)cc1`, the Potency was inconclusive: 28.2 µM [inhibitor, single point]. With `COc1cccc(/C=N/n2c(-c3n[nH]c4c3CCC4)n[nH]c2=S)c1O` the Potency was inconclusive: 25.1 µM [inhibitor, partial curve]. For `O=C(NC(=S)N1CCN(c2nc(-c3ccccc3)cs2)CC1)c1cccnc1`, the Potency was inconclusive: 25.1 µM [inhibitor, partial curve, poor fit]. In the case of `COc1cc(OC)cc(N(C(=O)c2ccco2)C(C(=O)NC2CCCC2)c2ccc(N3CCOCC3)cc2)c1` (centres undefined), the Potency was inconclusive: 0.891 µM [inhibitor, full curve]. With `C=CCn1c(CCC(O)CCCCC)n[nH]c1=S` (centres undefined) the Potency was inconclusive: 14.1 µM [inhibitor, partial curve, poor fit]. With `O=c1[nH]c2ccccc2n2c(-c3ccccc3)nnc12` the Potency was active: 2.82 µM. `Cc1ccc(-n2c(=S)[nH]c3[nH]ncc3c2=O)cc1` was tested, and the Potency was inconclusive: 20 µM [inhibitor, partial curve]. `CCSC1=C(C#N)C2(CCCC2)C(C#N)=C(N)N1` was tested, and the Potency was inconclusive: 15.8 µM [inhibitor, partial curve, poor fit]. With `COc1ccc(-c2nc(=S)[nH][nH]2)cc1` the Potency was inconclusive: 20 µM [inhibitor, partial curve, poor fit]. With `CC(C)c1cnc2c(c1SCc1ccc([N+](=O)[O-])cc1)c(=O)n(C)c(=O)n2C` the Potency was active: 10 µM. For `C=CCn1c(N)c(C(=O)NCCC2=CCCCC2)sc1=S`, the Potency was inconclusive: 20 µM [inhibitor, partial curve, poor fit]. `Fc1ccccc1Nc1n[nH]c(=S)s1` was tested, and the Potency was inconclusive: 12.6 µM [inhibitor, partial curve, poor fit]. For `CC1(C)C=Cc2cc3ccc(=O)oc3cc2O1`, the Potency was “inactive”. For `O=C1CCCC(=O)C1CS(=O)(=O)c1ccccc1`, the Potency was inconclusive: 3.55 µM [inhibitor, full curve, poor fit]. For `CCN1C/C(=C/c2cccs2)c2nc3ccccc3c(C(=O)O)c2C1`, the Potency was inconclusive: 28.2 µM [inhibitor, partial curve, poor fit]. For `CC(=O)n1cc(C=C2C(=O)NC(=O)NC2=O)c2ccccc21`, the Potency was active: 28.2 µM. For `O=C1OCCC1Sc1nnc(-c2ccc3c(c2)OCO3)n1-c1ccccc1` (centres undefined), the Potency was inconclusive: 17.8 µM [inhibitor, partial curve, poor fit]. With `CCNC(=S)Nc1ccc2c(c1)c(=O)n(C)n2Cc1cccc(C(F)(F)F)c1` the Potency was inconclusive: 14.1 µM [inhibitor, partial curve]. `Cc1ccc(CN(C)C(=O)c2cc(COc3ccc(F)cc3Cl)on2)o1` was tested, and the Potency was inconclusive: 35.5 µM [inhibitor, single point]. For `O=C(OC12CC3CC(CC(C3)C1)C2)c1ccc(NCc2cc(O)ccc2O)cc1`, the Potency was inconclusive: 25.1 µM [inhibitor, partial curve, poor fit]. `Cc1[nH]nc2c1C(=O)CCC2` was tested, and the Potency was inconclusive: 39.8 µM [inhibitor, single point]. For `O=C1OC(c2cccs2)Sc2ccccc21` (centres undefined), the Potency was “inactive”. With `Oc1ccc(/C=N/N2CCOCC2)c(O)c1O` the Potency was inconclusive: 15.8 µM [inhibitor, partial curve, poor fit]. For `Cc1ccc(S(=O)(=O)/N=C(\CN2CCCCC2)N2CCOCC2)cc1`, the Potency was inconclusive: 50.1 µM [inhibitor, single point]. `CCc1c(C)sc(NC(=O)c2ccoc2C)c1C(N)=O` was tested, and the Potency was inconclusive: 28.2 µM [inhibitor, partial curve, poor fit]. In the case of `CN(C)S(=O)(=O)c1cccc(C(=O)c2nccn2C)c1`, the Potency was “inactive”. In the case of `O=C(NCc1ccccc1)c1ccco1`, the Potency was “inactive”. For `CCOc1ccc(CN(C)CC(=O)NCc2ccccc2Cl)cc1`, the Potency was “inactive”. With `Cc1ccc(/C=C/C(=O)NCCc2ccccc2)o1` the Potency was inconclusive: 12.6 µM [inhibitor, partial curve, poor fit]. For `CCC(=O)/C=C1/Sc2ccccc2N1CC`, the Potency was inconclusive: 25.1 µM [inhibitor, partial curve].
